Results published in patent publication US20110319597A1 (CAPHALON AUSTRALIA, published 2011).
Values belong to the binder of their own block, whether it stands above or below them.

Columns and labels:
[1] = target: recombinant human TNFα (human, UniProt P01375 part only); assay: cell-based or functional assay
[2] = target: T1, recombinant human TNFα (CytoLab) (human, UniProt P01375 part only); assay: ELISA on coated human TNFα
T1 construct: coated on the ELISA plate at 1 µg/ml; also called Tumour necrosis factor alpha

B2: TNFα dAb Fc variant R18Q (Fc fusion, name in Kabat numbering)
chain: DIQMTQSPSSLSASVGDQVTITCRASQAIDSYLHWYQQKPGKAPKLLIYSASNLETGVPSRFSGSGSGTDFTLTISSLLPEDFATYYCQQVVWRPFTFGQGTKVEIKRV[human IgG1 Fc with changes left out]
Standardized EC50, L929 neutralization assay (5-point) [1]: 2.75 µg/mL

B4: TNFα dAb Fc variant R18P (Fc fusion, name in Kabat numbering)
chain: DIQMTQSPSSLSASVGDPVTITCRASQAIDSYLHWYQQKPGKAPKLLIYSASNLETGVPSRFSGSGSGTDFTLTISSLLPEDFATYYCQQVVWRPFTFGQGTKVEIKRV[human IgG1 Fc with changes left out]
Standardized EC50, L929 neutralization assay (5-point) [1]: 1.19 µg/mL

B5: TNFα dAb Fc variant R18D (Fc fusion, name in Kabat numbering)
chain: DIQMTQSPSSLSASVGDDVTITCRASQAIDSYLHWYQQKPGKAPKLLIYSASNLETGVPSRFSGSGSGTDFTLTISSLLPEDFATYYCQQVVWRPFTFGQGTKVEIKRV[human IgG1 Fc with changes left out]
Standardized EC50, L929 neutralization assay (5-point) [1]: 0.741 µg/mL

B6: TNFα dAb Fc variant R18H (Fc fusion, name in Kabat numbering)
chain: DIQMTQSPSSLSASVGDHVTITCRASQAIDSYLHWYQQKPGKAPKLLIYSASNLETGVPSRFSGSGSGTDFTLTISSLLPEDFATYYCQQVVWRPFTFGQGTKVEIKRV[human IgG1 Fc with changes left out]
Standardized EC50, L929 neutralization assay (5-point) [1]: 2.39 µg/mL

B9: TNFα dAb Fc variant A43Q (Fc fusion, name in Kabat numbering)
chain: DIQMTQSPSSLSASVGDRVTITCRASQAIDSYLHWYQQKPGKQPKLLIYSASNLETGVPSRFSGSGSGTDFTLTISSLLPEDFATYYCQQVVWRPFTFGQGTKVEIKRV[human IgG1 Fc with changes left out]
Standardized EC50, L929 neutralization assay (5-point) [1]: 2.69 µg/mL
A450 (AU) [2]: 1.05 AU

B14: TNFα dAb Fc variant D70A (Fc fusion, name in Kabat numbering)
chain: DIQMTQSPSSLSASVGDRVTITCRASQAIDSYLHWYQQKPGKAPKLLIYSASNLETGVPSRFSGSGSGTAFTLTISSLLPEDFATYYCQQVVWRPFTFGQGTKVEIKRV[human IgG1 Fc with changes left out]
Standardized EC50, L929 neutralization assay (5-point) [1]: 2.04 µg/mL
A450 (AU) [2]: 0.916 AU

B15: TNFα dAb Fc variant D70Q (Fc fusion, name in Kabat numbering)
chain: DIQMTQSPSSLSASVGDRVTITCRASQAIDSYLHWYQQKPGKAPKLLIYSASNLETGVPSRFSGSGSGTQFTLTISSLLPEDFATYYCQQVVWRPFTFGQGTKVEIKRV[human IgG1 Fc with changes left out]
Standardized EC50, L929 neutralization assay (5-point) [1]: 3.83 µg/mL
A450 (AU) [2]: 1.12 AU

B16: TNFα dAb Fc variant A43Y (Fc fusion, name in Kabat numbering)
chain: DIQMTQSPSSLSASVGDRVTITCRASQAIDSYLHWYQQKPGKYPKLLIYSASNLETGVPSRFSGSGSGTDFTLTISSLLPEDFATYYCQQVVWRPFTFGQGTKVEIKRV[human IgG1 Fc with changes left out]
Standardized EC50, L929 neutralization assay (5-point) [1]: 666 µg/mL
A450 (AU) [2]: 0.976 AU

B17: TNFα dAb Fc variant F83G (Fc fusion, name in Kabat numbering)
chain: DIQMTQSPSSLSASVGDRVTITCRASQAIDSYLHWYQQKPGKAPKLLIYSASNLETGVPSRFSGSGSGTDFTLTISSLLPEDGATYYCQQVVWRPFTFGQGTKVEIKRV[human IgG1 Fc with changes left out]
Standardized EC50, L929 neutralization assay (5-point) [1]: 6.21 µg/mL
A450 (AU) [2]: 1.05 AU

B18: TNFα dAb Fc variant F83D (Fc fusion, name in Kabat numbering)
chain: DIQMTQSPSSLSASVGDRVTITCRASQAIDSYLHWYQQKPGKAPKLLIYSASNLETGVPSRFSGSGSGTDFTLTISSLLPEDDATYYCQQVVWRPFTFGQGTKVEIKRV[human IgG1 Fc with changes left out]
Standardized EC50, L929 neutralization assay (5-point) [1]: 0.947 µg/mL
A450 (AU) [2]: 1.14 AU

B19: TNFα dAb Fc variant F83A (Fc fusion, name in Kabat numbering)
chain: DIQMTQSPSSLSASVGDRVTITCRASQAIDSYLHWYQQKPGKAPKLLIYSASNLETGVPSRFSGSGSGTDFTLTISSLLPEDAATYYCQQVVWRPFTFGQGTKVEIKRV[human IgG1 Fc with changes left out]
Standardized EC50, L929 neutralization assay (5-point) [1]: 0.682 µg/mL
A450 (AU) [2]: 1.14 AU

Next, values leading:

Standardized EC50, L929 neutralization assay (5-point) [1]: 2.74 µg/mL
A450 (AU) [2]: 1.02 AU
B1: TNFα dAb Fc variant A43H (Fc fusion, name in Kabat numbering)
chain: DIQMTQSPSSLSASVGDRVTITCRASQAIDSYLHWYQQKPGKHPKLLIYSASNLETGVPSRFSGSGSGTDFTLTISSLLPEDFATYYCQQVVWRPFTFGQGTKVEIKRV[human IgG1 Fc with changes left out]

Standardized EC50, L929 neutralization assay (5-point) [1]: 1.2 µg/mL
B3: TNFα dAb Fc (Fc fusion)
chain: DIQMTQSPSSLSASVGDRVTITCRASQAIDSYLHWYQQKPGKAPKLLIYSASNLETGVPSRFSGSGSGTDFTLTISSLLPEDFATYYCQQVVWRPFTFGQGTKVEIKRV[human IgG1 Fc with changes left out]

Standardized EC50, L929 neutralization assay (5-point) [1]: 1.59 µg/mL
B7: TNFα dAb Fc variant R18Y (Fc fusion, name in Kabat numbering)
chain: DIQMTQSPSSLSASVGDYVTITCRASQAIDSYLHWYQQKPGKAPKLLIYSASNLETGVPSRFSGSGSGTDFTLTISSLLPEDFATYYCQQVVWRPFTFGQGTKVEIKRV[human IgG1 Fc with changes left out]

Standardized EC50, L929 neutralization assay (5-point) [1]: 0.694 µg/mL
A450 (AU) [2]: 0.96 AU
B8: TNFα dAb Fc variant F62Y (Fc fusion, name in Kabat numbering)
chain: DIQMTQSPSSLSASVGDRVTITCRASQAIDSYLHWYQQKPGKAPKLLIYSASNLETGVPSRYSGSGSGTDFTLTISSLLPEDFATYYCQQVVWRPFTFGQGTKVEIKRV[human IgG1 Fc with changes left out]

Standardized EC50, L929 neutralization assay (5-point) [1]: 3.13 µg/mL
A450 (AU) [2]: 1.02 AU
B10: TNFα dAb Fc variant A43K (Fc fusion, name in Kabat numbering)
chain: DIQMTQSPSSLSASVGDRVTITCRASQAIDSYLHWYQQKPGKKPKLLIYSASNLETGVPSRFSGSGSGTDFTLTISSLLPEDFATYYCQQVVWRPFTFGQGTKVEIKRV[human IgG1 Fc with changes left out]

Standardized EC50, L929 neutralization assay (5-point) [1]: 1.33 µg/mL
A450 (AU) [2]: 1.02 AU
B11: TNFα dAb Fc variant F83H (Fc fusion, name in Kabat numbering)
chain: DIQMTQSPSSLSASVGDRVTITCRASQAIDSYLHWYQQKPGKAPKLLIYSASNLETGVPSRFSGSGSGTDFTLTISSLLPEDHATYYCQQVVWRPFTFGQGTKVEIKRV[human IgG1 Fc with changes left out]

Standardized EC50, L929 neutralization assay (5-point) [1]: 1.58 µg/mL
A450 (AU) [2]: 1.02 AU
B12: TNFα dAb Fc variant D70S (Fc fusion, name in Kabat numbering)
chain: DIQMTQSPSSLSASVGDRVTITCRASQAIDSYLHWYQQKPGKAPKLLIYSASNLETGVPSRFSGSGSGTSFTLTISSLLPEDFATYYCQQVVWRPFTFGQGTKVEIKRV[human IgG1 Fc with changes left out]

Standardized EC50, L929 neutralization assay (5-point) [1]: 12.3 µg/mL
A450 (AU) [2]: 0.241 AU
B13: TNFα dAb Fc variant F62H (Fc fusion, name in Kabat numbering)
chain: DIQMTQSPSSLSASVGDRVTITCRASQAIDSYLHWYQQKPGKAPKLLIYSASNLETGVPSRHSGSGSGTDFTLTISSLLPEDFATYYCQQVVWRPFTFGQGTKVEIKRV[human IgG1 Fc with changes left out]
